{"source": "the supplement of paper PMC8728848", "assay_in_all_cases": "glycan array binding signal (z-score within array); higher = stronger binding", "details_in_all_cases": "glycan notation: IUPAC condensed, linker removed", "key": {"Fuc(a1-2)Gal": {"target": "Fuc(a1-2)Gal", "method_in_brief": "(§1)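 From the Consortium for Functional Glycomics database, 3228 arrays were curated, keeping only those whose protein sequence was available. Binding is given as a within-array Z-score averaged across arrays sharing a protein sequence and across linkers. Negative Z-scores can be read as non-binding.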"}, "Fuc(a1-2)Gal(b1-3)GalNAc": {"target": "Fuc(a1-2)Gal(b1-3)GalNAc", "method_in_brief": "as §1"}, "[1]": {"target": "Fuc(a1-2)Gal(b1-3)GalNAc(a1-3)[Fuc(a1-2)]Gal(b1-4)Glc", "method_in_brief": "as §1"}, "[2]": {"target": "Fuc(a1-2)Gal(b1-3)GalNAc(a1-3)[Fuc(a1-2)]Gal(b1-4)GlcNAc", "method_in_brief": "as §1"}, "[3]": {"target": "Fuc(a1-2)Gal(b1-3)GalNAc(b1-3)Gal", "method_in_brief": "as §1"}, "[4]": {"target": "Fuc(a1-2)Gal(b1-3)GalNAc(b1-3)Gal(a1-4)Gal(b1-4)Glc", "method_in_brief": "as §1"}, "[5]": {"target": "Fuc(a1-2)Gal(b1-3)GalNAc(b1-4)[Neu5Ac(a2-3)]Gal(b1-4)Glc", "method_in_brief": "as §1"}, "Fuc(a1-2)Gal(b1-3)GlcNAc": {"target": "Fuc(a1-2)Gal(b1-3)GlcNAc", "method_in_brief": "as §1"}, "[6]": {"target": "Fuc(a1-2)Gal(b1-3)GlcNAc(b1-2)Man(a1-3)[Fuc(a1-2)Gal(b1-3)GlcNAc(b1-2)Man(a1-6)]Man(b1-4)GlcNAc(b1-4)GlcNAc", "method_in_brief": "as §1"}, "[7]": {"target": "Fuc(a1-2)Gal(b1-3)GlcNAc(b1-2)Man(a1-3)[Fuc(a1-2)Gal(b1-3)GlcNAc(b1-2)Man(a1-6)]Man(b1-4)GlcNAc(b1-4)[Fuc(a1-6)]GlcNAc", "method_in_brief": "as §1"}, "[8]": {"target": "Fuc(a1-2)Gal(b1-3)GlcNAc(b1-3)Gal(b1-4)Glc", "method_in_brief": "as §1"}, "[9]": {"target": "Fuc(a1-2)Gal(b1-3)GlcNAc(b1-3)GalNAc", "method_in_brief": "as §1"}, "[10]": {"target": "Fuc(a1-2)Gal(b1-3)GlcNAc(b1-3)[Fuc(a1-2)Gal(b1-3)GlcNAc(b1-6)]GalNAc", "method_in_brief": "as §1"}, "[11]": {"target": "Fuc(a1-2)Gal(b1-3)GlcNAc(b1-3)[Gal(b1-4)GlcNAc(b1-6)]Gal(b1-4)Glc", "method_in_brief": "as §1"}, "[12]": {"target": "Fuc(a1-2)Gal(b1-3)GlcNAc(b1-3)[Neu5Ac(a2-6)Gal(b1-4)GlcNAc(b1-6)]Gal(b1-4)Glc", "method_in_brief": "as §1"}, "[13]": {"target": "Fuc(a1-2)Gal(b1-3)GlcNAc6S", "method_in_brief": "as §1"}, "[14]": {"target": "Fuc(a1-2)Gal(b1-3)[Fuc(a1-4)]GlcNAc", "method_in_brief": "as §1"}, "[15]": {"target": "Fuc(a1-2)Gal(b1-3)[Fuc(a1-4)]GlcNAc(b1-2)Man(a1-3)[Fuc(a1-2)Gal(b1-3)[Fuc(a1-4)]GlcNAc(b1-2)Man(a1-3)]Man(b1-4)GlcNAc(b1-4)GlcNAc", "method_in_brief": "as §1"}, "[16]": {"target": "Fuc(a1-2)Gal(b1-3)[Fuc(a1-4)]GlcNAc(b1-2)Man(a1-3)[Fuc(a1-2)Gal(b1-3)[Fuc(a1-4)]GlcNAc(b1-2)Man(a1-6)]Man(b1-4)GlcNAc(b1-4)[Fuc(a1-6)]GlcNAc(b1-4)[Fuc(a1-6)]GlcNAc", "method_in_brief": "as §1"}, "[17]": {"target": "Fuc(a1-2)Gal(b1-3)[Fuc(a1-4)]GlcNAc(b1-3)[Fuc(a1-3)[Gal(b1-4)]GlcNAc(b1-6)]Gal(b1-4)Glc", "method_in_brief": "as §1"}, "[18]": {"target": "Fuc(a1-2)Gal(b1-3)[Fuc(a1-4)]GlcNAc(b1-3)[Gal(b1-4)GlcNAc(b1-6)]Gal(b1-4)Glc", "method_in_brief": "as §1"}, "[19]": {"target": "Fuc(a1-2)Gal(b1-4)Fuc(a1-3)]GlcNAc(b1-2)Man(a1-3)[Fuc(a1-2)Gal(b1-4)[Fuc(a1-3)]GlcNAc(b1-2)Man(a1-6)]Man(b1-4)GlcNAc(b1-4)GlcNAc", "method_in_brief": "as §1"}, "Fuc(a1-2)Gal(b1-4)Glc": {"target": "Fuc(a1-2)Gal(b1-4)Glc", "method_in_brief": "as §1"}, "Fuc(a1-2)Gal(b1-4)Glc6S": {"target": "Fuc(a1-2)Gal(b1-4)Glc6S", "method_in_brief": "as §1"}, "Fuc(a1-2)Gal(b1-4)GlcNAc": {"target": "Fuc(a1-2)Gal(b1-4)GlcNAc", "method_in_brief": "as §1"}, "[20]": {"target": "Fuc(a1-2)Gal(b1-4)GlcNAc(b1-2)Man", "method_in_brief": "as §1"}, "[21]": {"target": "Fuc(a1-2)Gal(b1-4)GlcNAc(b1-2)Man(a1-3)[Fuc(a1-2)Gal(b1-4)GlcNAc(b1-2)Man(a1-6)]Man(b1-4)GlcNAc(b1-4)GlcNAc", "method_in_brief": "as §1"}, "[22]": {"target": "Fuc(a1-2)Gal(b1-4)GlcNAc(b1-2)Man(a1-3)[Fuc(a1-2)Gal(b1-4)GlcNAc(b1-2)Man(a1-6)]Man(b1-4)GlcNAc(b1-4)[Fuc(a1-6)]GlcNAc", "method_in_brief": "as §1"}, "[23]": {"target": "Fuc(a1-2)Gal(b1-4)GlcNAc(b1-2)[Fuc(a1-2)Gal(b1-4)GlcNAc(b1-4)]Man(a1-3)[Fuc(a1-2)Gal(b1-4)GlcNAc(b1-2)Man(a1-6)]Man(b1-4)GlcNAc(b1-4)GlcNAc", "method_in_brief": "as §1"}, "[24]": {"target": "Fuc(a1-2)Gal(b1-4)GlcNAc(b1-3)Gal(b1-4)GlcNAc", "method_in_brief": "as §1"}}, "note": "This is one part of the list.", "data": [{"binder": "LICBM33A (Lactococcus lactis), Q9CE94 (protein) MKKLLTGLLVAAGLLSVSLLIKTDTVSAHGYVQSPPARGYQGQLDSQSLGWTAAFNIYGNVISNPQSLEAPKGFPECGPADGRIASANGGLGQIGDFVLDNQTSSRWKKTSISTGSNIFTWKYTAPHKTTKWHYYMTKTGWDQNAPLKHSELELIGTINHDGSPATNNLSHTINIPTDRSGYHIVLAVWDVADTSNAFYNVIDINVNNKNASSQVFGPFL", "values": [{"measurement": "glycan array binding signal (z-score)", "setting": "Fuc(a1-2)Gal", "value": 0.396}, {"measurement": "glycan array binding signal (z-score)", "setting": "Fuc(a1-2)Gal(b1-3)GalNAc", "value": -0.051}, {"measurement": "glycan array binding signal (z-score)", "setting": "[1]", "value": -0.534}, {"measurement": "glycan array binding signal (z-score)", "setting": "[2]", "value": -0.968}, {"measurement": "glycan array binding signal (z-score)", "setting": "[3]", "value": -0.451}, {"measurement": "glycan array binding signal (z-score)", "setting": "[4]", "value": 0.488}, {"measurement": "glycan array binding signal (z-score)", "setting": "[5]", "value": -0.276}, {"measurement": "glycan array binding signal (z-score)", "setting": "Fuc(a1-2)Gal(b1-3)GlcNAc", "value": -0.947}, {"measurement": "glycan array binding signal (z-score)", "setting": "[6]", "value": -1.27}, {"measurement": "glycan array binding signal (z-score)", "setting": "[7]", "value": -0.329}, {"measurement": "glycan array binding signal (z-score)", "setting": "[8]", "value": 0.456}, {"measurement": "glycan array binding signal (z-score)", "setting": "[9]", "value": -0.484}, {"measurement": "glycan array binding signal (z-score)", "setting": "[10]", "value": 0.347}, {"measurement": "glycan array binding signal (z-score)", "setting": "[11]", "value": 0.055}, {"measurement": "glycan array binding signal (z-score)", "setting": "[12]", "value": -0.364}, {"measurement": "glycan array binding signal (z-score)", "setting": "[13]", "value": 1.3}, {"measurement": "glycan array binding signal (z-score)", "setting": "[14]", "value": -0.377}, {"measurement": "glycan array binding signal (z-score)", "setting": "[15]", "value": 0.001}, {"measurement": "glycan array binding signal (z-score)", "setting": "[16]", "value": 0.884}, {"measurement": "glycan array binding signal (z-score)", "setting": "[17]", "value": -0.844}, {"measurement": "glycan array binding signal (z-score)", "setting": "[18]", "value": -0.224}, {"measurement": "glycan array binding signal (z-score)", "setting": "[19]", "value": -0.901}, {"measurement": "glycan array binding signal (z-score)", "setting": "Fuc(a1-2)Gal(b1-4)Glc", "value": 0.23}, {"measurement": "glycan array binding signal (z-score)", "setting": "Fuc(a1-2)Gal(b1-4)Glc6S", "value": 1.25}, {"measurement": "glycan array binding signal (z-score)", "setting": "Fuc(a1-2)Gal(b1-4)GlcNAc", "value": 0.162}, {"measurement": "glycan array binding signal (z-score)", "setting": "[20]", "value": -0.573}, {"measurement": "glycan array binding signal (z-score)", "setting": "[21]", "value": -0.636}, {"measurement": "glycan array binding signal (z-score)", "setting": "[22]", "value": 0.363}, {"measurement": "glycan array binding signal (z-score)", "setting": "[23]", "value": 6.68}, {"measurement": "glycan array binding signal (z-score)", "setting": "[24]", "value": 3.32}]}]}
